# Data from the BET-seq Pho4 binding data (Le et al. 2018).
# Some of the results follow. The energies were worked out here from pooled read counts, against the library average; single values are noisy.
# Target: T1, Pho4 (S. cerevisiae) (UniProt P07270)
# T1 sequence: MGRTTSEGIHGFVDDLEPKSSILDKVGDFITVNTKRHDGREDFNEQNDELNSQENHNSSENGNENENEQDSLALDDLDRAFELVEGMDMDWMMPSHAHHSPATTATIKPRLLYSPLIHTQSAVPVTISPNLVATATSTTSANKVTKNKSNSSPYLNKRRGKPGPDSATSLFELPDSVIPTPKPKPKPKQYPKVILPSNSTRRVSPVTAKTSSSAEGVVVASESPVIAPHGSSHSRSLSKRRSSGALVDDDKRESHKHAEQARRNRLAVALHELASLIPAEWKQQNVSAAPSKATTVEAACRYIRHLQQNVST
# Experiment: relative binding free energy (BET-seq); higher = weaker binding
# Settings: reference: library average
row,Sequence,relative binding free energy [kcal/mol]
1,TTTGCCACGTGGGTTT,-0.08
2,TAAATCACGTGGAAGT,0.31
3,CAGGTCACGTGGGTTA,0
4,GGTCTCACGTGAGTTG,0.46
5,CGAGACACGTGGGGGA,-0.1
6,TTCCGCACGTGGGGTA,-0.14
7,AGTTTCACGTGGTGTT,0.27
8,TGGAGCACGTGTAGCT,-0.14
9,GTATTCACGTGTTGCG,0.25
10,TTTTACACGTGTGCTT,0.13
11,AGAGACACGTGGTGAT,-0.09
12,TAGTTCACGTGGAAAA,0.34
13,TGCGTCACGTGGTGTC,0.1
14,TAAGGCACGTGATTTT,0.06
15,ATGGCCACGTGTGTTT,0.09
16,ATGCGCACGTGGCGGG,-0.33
17,AGTCACACGTGTGGGT,0.19
18,TCTGTCACGTGTTTAA,-0.04
19,AGATGCACGTGTGAGT,0
20,CGTATCACGTGTGGAT,0.13
21,TTTACCACGTGAGGTG,0.26
22,TTGTTCACGTGATGGG,0.37
23,TAGAGCACGTGAGTTG,0.08

row,Sequence,relative binding free energy [kcal/mol]
1,GCGGGCACGTGAGGTA,0.24
2,AAAGCCACGTGGGGGG,-0.29
3,GTATGCACGTGGATTA,0.02
4,CATGTCACGTGATAGG,0.2
5,CAGAGCACGTGGGTGG,-0.26
6,CAGTTCACGTGTTTTT,0.22
7,AACTGCACGTGGTAAG,0.05
8,TCGTACACGTGAAGGT,0.15
9,GGCTGCACGTGAGCGG,0.16
10,TCAGGCACGTGAAGTT,0.15
11,ACTTGCACGTGAGGGG,-0.01
12,AATTACACGTGTTTGA,0.09
13,AGTCGCACGTGTGGTA,0
14,CGCTTCACGTGTTTGA,0.21
15,GTTATCACGTGTGAGA,0.26
16,GGTACCACGTGTGGCG,0
17,TATGACACGTGGAGGT,-0.09
18,ACGTTCACGTGTTAGT,0.17
19,GGGGACACGTGTGTGC,0
20,TATATCACGTGGGCAG,0.04
21,GCTAGCACGTGGTGGC,-0.06
22,GGCTGCACGTGTGAGT,0.18
23,GTGTCCACGTGTGGCT,0.16

row,Sequence,relative binding free energy [kcal/mol]
1,GGAGCCACGTGAGGTG,0.15
2,AACGGCACGTGTTCTG,0.05
3,TGACACACGTGGGTTA,-0.08
4,TGGGTCACGTGTAAGC,0.23
5,GTTGACACGTGTGTGA,0.03
6,TTCGGCACGTGAAATG,0.13
7,GTATCCACGTGAGGTT,0.29
8,TATAGCACGTGCGGGC,-0.11
9,GGCTGCACGTGAGCGT,0.11
10,GAATACACGTGGTTTT,0.14
11,AGTTACACGTGGGAGT,0.01
12,GGTCGCACGTGGGGGA,-0.04
13,ATTGTCACGTGGTCGC,0.03
14,TGCATCACGTGTTAGG,0.18
15,AGTTCCACGTGTTGTT,-0.06
16,TATAGCACGTGGAAGT,-0.02
17,ATTTGCACGTGGAATG,0.21
18,TGAGACACGTGTTGTC,-0.01
19,GTCGTCACGTGGATTG,0.2
20,GTGGACACGTGCTAGT,-0.07
21,AGGTGCACGTGTGTAA,-0.04
22,TTTTGCACGTGACCGG,0.06
23,TCAGTCACGTGGGTTG,-0.08

row,Sequence,relative binding free energy [kcal/mol]
1,AAAGGCACGTGTGATA,-0.09
2,GAGGTCACGTGGTTGC,0.2
3,TTATACACGTGGGAAA,0.06
4,GGGTGCACGTGGAGCT,0.02
5,TCTTTCACGTGTAATA,0.42
6,AGTTGCACGTGGTCGT,-0.08
7,TAAGCCACGTGTGGTA,-0.04
8,GTGTACACGTGCGGTT,0.01
9,AGTGACACGTGGGAGG,-0.12
10,CTTTACACGTGGGAAT,0.12
11,GGTGGCACGTGAGAAA,0.2
12,GTATTCACGTGATTTT,0.31
13,TGGATCACGTGCGGGT,0.07
14,AAATACACGTGCGGTT,0.1
15,GCTGGCACGTGTCAGG,0.04
16,TATTTCACGTGAAATT,0.4
17,GCGTGCACGTGAGGGA,0.32
18,TAGCCCACGTGGGTGG,-0.12
19,TTTATCACGTGAAGTG,0.45
20,TATGACACGTGTGGAC,0.09
21,AGCGACACGTGGGAGT,0
22,TGAGGCACGTGGGTAA,-0.13
23,TATTCCACGTGTGGAT,0.13

row,Sequence,relative binding free energy [kcal/mol]
1,GATTTCACGTGTTACT,0.3
2,TTGTACACGTGGTAGA,-0.05
3,CGTGGCACGTGGTATT,-0.21
4,ATAGTCACGTGTGATT,0.03
5,TGGATCACGTGCAGTT,0.25
6,GATTTCACGTGTGATA,0.28
7,GTGTACACGTGCGGCG,-0.06
8,AGCGTCACGTGATTGA,0.27
9,AACGTCACGTGAGGGA,0.14
10,ATTGTCACGTGGCTTC,0.14
11,GTGGGCACGTGAGGTC,0.18
12,GGGAACACGTGTGTGT,0.03
13,TCTCACACGTGGTGGG,-0.02
14,GTCTGCACGTGGAGAT,0.17
15,GATTTCACGTGCAGGT,0.43
16,GTTTGCACGTGGATGT,0.12
17,CAGTTCACGTGTGAGT,0.37
18,ATTGCCACGTGGGTTA,-0.18
19,GGTGTCACGTGGGTAC,-0.08
20,TGGATCACGTGATGTC,0.23
21,AATATCACGTGGCATG,0.07
22,TCCTTCACGTGTATTT,0.23
23,AGGATCACGTGTGGAG,0.18
